PMC9865020, “Identification of Novel Small Molecule Ligands for JAK2 Pseudokinase Domain” (Pharmaceuticals, 2023)

Tests used:
JAK1 JH2 = JAK1 JH2 (Homo sapiens, UniProt P23458); experiment: More sensitive FP binding assay, Bodipy FL-labeled JNJ-7706621 tracer
JAK2 JH1 D976N = JAK2 JH1 D976N (Homo sapiens, UniProt O60674, D976N); experiment: as above; parameters: JAK2 JH1 (836-1132) D976N; hexa histidine-tag (C); made in house; host or cells: High Five or Sf9 insect cells

IC50 (JAK1 JH2): > 100 µM
IC50 (JAK2 JH1 D976N): > 100 µM
SMILES: Cc1ccsc1CN(C)Cc1nc(N)nc(Nc2ccccc2)n1 [Compound 24]
